This note sets out measurements from ChEMBL document CHEMBL4888484, “Replenishing the malaria drug discovery pipeline: Screening and hit evaluation of the MMV Hit Generation Library 1 (HGL1) against asexual blood stage Plasmodium falciparum ,using a nano luciferase reporter read-out” (2022).

Among all 150,000 compounds or so, about 540 (0.36%) showed an effect of 50% or more. Some of the results follow.

In this experiment the test system is Plasmodium falciparum. The experiment is described as follows: Primary screen in NF54 nanoGlo assay, in single point, at 2uM, 72h; a lower Z score goes with more inhibition. It is filed as functional, Erythrocyte. As to conditions: timepoint 72 hour.
As for `CCc1ccc(C(=O)N[C@H](C#N)C(C)(C)C)c(O)c1`, the “% Inhibition” value is on record as 0% and the Z score is on record as -0.03.

As for `Cc1ncn(Cc2cccc3cccnc23)c1C`, the “% Inhibition” value is reported as -8% and the Z score turned out to be 1.29.

With `O=C(CCc1cccnc1)N1CCN(Cc2ccc(-c3cccc(Cl)c3)s2)CC1`, the “% Inhibition” value is listed as 3% and the Z score is -0.38.

For `COc1cc(-c2cccc([C@H](C)N3CCCC3)c2)cc2cc(C(=O)O)oc12`, the “% Inhibition” value worked out at 4% and the Z score is -0.74.

Turning to `CN1CCCN(c2ccnc3ccsc23)CC1`, the “% Inhibition” value was determined as 32% and the Z score is listed as -4.37.

Turning to `COc1ccc(CCNC(=O)N2CC(c3nc4cc(C)ccc4[nH]3)C2)cc1`, the “% Inhibition” value is listed as -11% and the Z score turned out to be 2.05.

Turning to `Cn1cc(-c2csc(-c3ccc(S(C)(=O)=O)cc3)n2)cn1`, the “% Inhibition” value is listed as -16% and the Z score is recorded as 2.2.

Consider `CC(NC1C2CC1N(C(=O)OC(C)(C)C)C2)c1cccnc1` (stereo not drawn), for which the “% Inhibition” value is -6% and the Z score was found to be 0.9.

As to `Cc1ccc(-c2csc(NC(=O)[C@@H]3CCCN3C(=O)c3ccccc3O)n2)cc1C`, the “% Inhibition” value is on record as -12% and the Z score amounted to 1.33.

Consider `COc1ccc(NC(=O)Cn2nc3c(N4CCC[C@H](C)C4)nccn3c2=O)cc1OC`, for which the “% Inhibition” value is on record as -2% and the Z score is listed as 0.22.

On to `CC(C)OC(=O)N1C[C@@H]2CC[C@H]1CN(C(=O)c1ccncc1)C2`, for which the “% Inhibition” value is recorded as -9% and the Z score was 1.43.

On to `Cc1nc(CN(C)c2ncccc2C(=O)OC(C)C)cs1`, for which the “% Inhibition” value was -2% and the Z score is 0.21.

For the molecule `Cc1nnc(Cn2cnc(-c3ccccc3)c2-c2cccc3cnccc23)o1`, the “% Inhibition” value is reported as -6% and the Z score is recorded as 1.25.

As to `Cc1cc(N)n(-c2ccc(-c3noc(-c4cc(C(C)C)on4)n3)cc2)n1`, the “% Inhibition” value is 15% and the Z score was -3.24.

As to `CN1CCc2ncnc(NCc3cccc(Cl)c3O)c2C1`, the “% Inhibition” value is reported as -11% and the Z score was determined as 1.66.

With `COc1cccc(C(=O)N2CCN(C(=O)c3cc(=O)[nH]c(=O)[nH]3)CC2)c1`, the “% Inhibition” value is on record as -2% and the Z score came to 0.28.

Turning to `COc1ccc2cc1OCC(=O)N[C@@H](C)C(=O)N(C)CCCCN(C(=O)COc1cccc(C)c1C)CCCNC(=O)CC2`, the “% Inhibition” value was 3% and the Z score was -0.42.

As for `CN(c1ccccc1)c1nc(-c2ccccc2)no1`, the “% Inhibition” value is on record as -10% and the Z score came to 0.84.

Take `CC(C)(C)Nc1c(-c2ccc(C(C)(C)C)cc2)nc2c(OCc3ccccc3)cccn12`: the “% Inhibition” value is on record as -19% and the Z score is 1.76.

For the molecule `CCNC(=O)Nc1ccc2c(c1)CN(C(=O)Cc1cccc(F)c1)CCO2`, the “% Inhibition” value is on record as -3% and the Z score came to 0.51.

As to `Cc1n[nH]c(C)c1CNC(=O)[C@H](N)CC(C)(C)C`, the “% Inhibition” value is -4% and the Z score was determined as 0.75.

Turning to `Cc1cnc(C(=O)NC[C@@H](C(C)C)N2CCN(C)CC2)cn1`, the “% Inhibition” value came out at 12% and the Z score is given as -1.54.

With `Cn1cc(CCC(=O)N2CCCC2CC2CC3CCC2C3)cn1` (stereo not drawn), the “% Inhibition” value is recorded as -20% and the Z score is 1.74.

On to `CC(C)n1cnc2cc(CNC(=O)C3CCCCC3)ccc21`, for which the “% Inhibition” value is listed as -24% and the Z score was determined as 2.32.

For the molecule `O=C(CNC(=O)OCc1ccccc1)NC1CCCCCCC1`, the “% Inhibition” value stood at 7% and the Z score is -1.33.

Turning to `CC(=O)N1CCCCC1CC(=O)N1CC(C)C(N2CCOCC2)C1` (stereo not drawn), the “% Inhibition” value is 3% and the Z score is -0.36.

On to `Fc1ccccc1CN1CCOC[C@H](Oc2cccnc2)C1`, for which the “% Inhibition” value was found to be 8% and the Z score is -0.99.

Regarding `Cc1ccc(NC(=O)[C@@H](F)C(F)(F)F)cc1`, the “% Inhibition” value is -2% and the Z score was found to be 0.41.

Consider `COc1cc(-c2cccc(OC)c2C(=O)N(C(C)C)C(C)C)nc(N)n1`, for which the “% Inhibition” value is given as -9% and the Z score is listed as 1.18.

Regarding `CC(=O)N1CCOCC1C(=O)N1CCCC(CCC(C)C)C1` (stereo not drawn), the “% Inhibition” value was -10% and the Z score was found to be 1.39.

With `CC(C)CC(NC(=O)OC(C)(C)C)C(=O)N1CCC(C(=O)NC(C(=O)O)C(C)C)CC1` (stereo not drawn), the “% Inhibition” value is recorded as -2% and the Z score was found to be 0.26.

Take `CCc1noc(C)c1C(=O)N1CCC[C@H](c2nccn2Cc2cccnc2)C1`: the “% Inhibition” value is on record as -2% and the Z score was found to be 0.4.

Consider `Cc1ccc(CCN(CC(F)(F)F)C(=O)[C@@H]2CCN(C)S2(=O)=O)cc1`, for which the “% Inhibition” value is listed as 5% and the Z score is -0.74.

For the molecule `C[C@@H](C(=O)N1CCCc2ccccc21)N(C)Cc1nccn1C(F)F`, the “% Inhibition” value came out at 15% and the Z score is given as -2.7.

For the molecule `CC1(C)CCC[C@H](NCCNc2cccnc2)C1`, the “% Inhibition” value is -7% and the Z score stood at 1.53.

On to `Cc1cccc(C(=O)Nc2ncccc2OCc2cccnc2)c1F`, for which the “% Inhibition” value is -3% and the Z score is 0.27.

For `Cc1cccc(NC(=O)Cn2nc3n(c2=O)CCCC3)c1`, the “% Inhibition” value is listed as -3% and the Z score is 0.36.

On to `O=C(NCc1ccc2c(n1)CCCC2)c1ocnc1C1CC1`, for which the “% Inhibition” value is -2% and the Z score amounted to 0.27.

As for `C[C@H](NCc1nc(C2CC2)nn1C)c1c(F)cccc1F`, the “% Inhibition” value was -13% and the Z score is given as 2.41.

On to `CC(C)N1CCN(C(=O)[C@@H](N)C2CCCCC2)CC1`, for which the “% Inhibition” value is -5% and the Z score is reported as 0.51.

On to `C[C@H]1CCCN(C(=O)Cn2ccn3nc(-c4ccc(F)cc4)c(CO)c3c2=O)C1`, for which the “% Inhibition” value is -7% and the Z score was 0.67.

For the molecule `Cc1c(NC(=O)CC2(CC(=O)O)CCCCC2)c(=O)n(-c2ccccc2)n1C`, the “% Inhibition” value is reported as -9% and the Z score came out at 1.31.

With `O=C(c1ccccc1)c1nccn1CCS(=O)(=O)c1ccccc1`, the “% Inhibition” value was -3% and the Z score turned out to be 0.6.

Take `CCC(=O)Nc1cc(-n2cncn2)ncn1`: the “% Inhibition” value is -5% and the Z score stood at 0.73.

In the case of `COc1cc2c(cc1OC)CN([C@@H](C)c1nnc(-c3ccc(F)cc3)o1)CC2`, the “% Inhibition” value is -10% and the Z score was found to be 1.43.

Regarding `CC1=NO[C@@H](CNC(=O)Nc2cc(C)ccc2C)C1`, the “% Inhibition” value is recorded as -6% and the Z score is reported as 0.8.

With `O=C(c1ccccn1)N1CCCn2nc(-c3ccc(Cl)cc3)cc2C1`, the “% Inhibition” value is listed as -5% and the Z score was determined as 0.84.

As to `O=C(C1CC12CCCC2)N1CCCC(S(=O)(=O)N2CCc3ccccc32)C1` (stereo not drawn), the “% Inhibition” value turned out to be 35% and the Z score was -5.12.

As to `Cc1ccccc1NC(=O)c1cccn1Cc1noc(-c2ccccc2)n1`, the “% Inhibition” value is on record as 0% and the Z score was 0.01.

Turning to `Brc1cnn(Cc2cnc(N3CCC[C@H](c4nccs4)C3)s2)c1`, the “% Inhibition” value is -7% and the Z score is listed as 1.19.

`Cn1cc(Cl)c(C(=O)N2C[C@@H]3CC[C@H]2CN(C(=O)c2ccccc2)C3)n1`: the “% Inhibition” value was 3% and the Z score was -0.4.

Take `O=C(NCCC(F)(F)F)[C@@H]1NCCc2ccccc21`: the “% Inhibition” value was -1% and the Z score is listed as 0.2.

`COc1ccc(Cl)cc1S(=O)(=O)N(CC(=O)N1CCNCC1)C1CCCC1`: the “% Inhibition” value is reported as 3% and the Z score is listed as -0.31.

As to `CCCCN(CC)S(=O)(=O)c1cc(-c2nnc(C)o2)co1`, the “% Inhibition” value was -2% and the Z score is given as 0.21.

A word on the % Inhibition: it is the relative decrease from the control value, in per cent.
